Data published in doi:10.1101/2024.10.14.618187, “Molecular basis of interchain disulfide-bond formation in BMP-9 and BMP-10” (bioRxiv, 2024).

Molecular target: T1, BMP-9 monomer (cysteinylated BMP-9 growth factor) (human, UniProt Q9UK05 320-429, A321S, Cys-392 cysteinylated (a cysteine attached by a disulfide, +119 Da))
T1 construct: human BMP-9 growth factor domain released by factor Xa from Pro-(X)-BMP-9 (proBMP9 residues 23-429, A321S, furin site RRKR replaced by IEGR); numbers count on the precursor; The His tag sits on the prodomain and goes with it after the factor Xa digest; One of PDB 9DPM-9DPY holds this molecule; source: expi293 (suspension HEK293), secreted as Pro-(X)-BMP-9; nickel column, factor Xa digest, C18 …
T1 sequence (looked up): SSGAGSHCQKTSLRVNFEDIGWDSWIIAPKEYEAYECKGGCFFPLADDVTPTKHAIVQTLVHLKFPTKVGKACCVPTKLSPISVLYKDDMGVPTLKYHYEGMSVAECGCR
Assay: SEC-MALS; BMP-9 monomer at 6.58 μM injected with excess ActRIIa (1:1.6); Superdex 75 Increase 10/300 GL; 150 mM NaCl, 100 mM tris pH 7.5
Details: both partners purified

- binding result: binds
B1: ActRIIa extracellular domain (human activin receptor type-2A […]) (receptor)
chain: not shown
modifications: deglycosylated with PNGAseF
notes: human activin receptor type-2A, […]; The purification as told names no thrombin step; the expected mass of the complex (24.4 kDa) hints that the tag was off, but this is a surmise; source: expi293 (suspension HEK293), secreted; nickel column, PNGase F, size exclusion chromatography
